# Laboratory results from article PMC12136788.
# This is one part of the list.
# B1: chr9:13223689:13223690:-_ENSG00000107186_ENST00000319217|hu_hu|motif|central (ssRNA)
# RNA: GGGAGUUCUACAGUCCGACGAUCCUCUUGAACAAAUAUUCCCAGCUCUCCUCUGUUUUCACUUCUUAGUCCCACAACACGGAACCCAAGGCCUCCAGAUGGAGGUUUGAGGAGCUCAAAAACUUCUACAUGGCGACCCUGGGCCAACAGAGGAUUGAGCAUCA
# B2: chr13:55803806:55803807:+_ENSMUSG00000045767_ENSMUST00000057844|mus_hu|FALSE|FALSE (ssRNA)
# RNA: GGGAGUUCUACAGUCCGACGAUCUUAGCUCAUUUGCUAAUAUAAUAAAUAAGGCAUGUUAAAGUACUUUUUAAAGAAAAAAGUAAUGCAGACUUACUUGAAUUGCAGAUCAUUUUCUGACCAACAGUUUAAAUAUAGAAUAAUCAACAGAGGAUUGAGCAUCA
# B3: 69581730_69584097_1114_CDS_ENSMUSG00000042133_ENSMUST00000090858|mouse|control|control (ssRNA)
# RNA: GGGAGUUCUACAGUCCGACGAUCGUUAGGUGGAUUACACUCUCUUUCUCUUUCUCUCUCUCUGUUUUUCCUCUCCUUGUCAUCGGCUUUAGGAGGACUUUUUCUCAUUAGAAAUCUAUUUUCUGGUAUAGGAGGGAUCUCUUCCAACAGAGGAUUGAGCAUCA
# B4: chr6:114281168:114281169:-_ENSG00000196591_ENST00000368632|hu_hu|hu_hu_hu_mus_True|88_88 (ssRNA)
# RNA: GGGAGUUCUACAGUCCGACGAUCUUCCAUUUUUCGGUAUAAACCAUAAUUUAACAGCAAGUUAUGAGUCAUCCGGAUUCUAUGAGGCUUCAUGGGAUGACCCUGGCCAUAAUAAUAAUUGCCAAUAUCACCAUCAUAGUAGUACAACAGAGGAUUGAGCAUCA
# B5: 17616259_17616379_66_CDS_ENSG00000118579_ENST00000237380|human|control|control (ssRNA)
# RNA: GGGAGUUCUACAGUCCGACGAUCUGGAGCUGCCUGAAGAAGCGAAGCUUGGCCCGGAAGGCCCGGCGGGGCCUGAGGGGGACCGGGUGGCUGCCCAGAAAACAUACCCCCUAGUGGAGCCGCCAUGUUUGGAAUGGCGCAAGACAACAGAGGAUUGAGCAUCA
# B6: 27436191_27436495_1500_CDS_ENSG00000033867_ENST00000419036|human|control|control (ssRNA)
# RNA: GGGAGUUCUACAGUCCGACGAUCUCCCAUGACAGAGCAAACUCCCAACAUAACGCCAACCAUGAGCAAAUCAAGGUGAUAGCCAGCUCCUUUCUUCAAUUUGUGUUCCUUUCUGUUUAUAAUUACAGCUGUGAUUUGUUGAUCCAACAGAGGAUUGAGCAUCA
# B7: chr17:60770872:60770873:+_ENSG00000011028_ENST00000303375|hu_hu|hu_hu_hu_mus_True|98_98 (ssRNA)
# RNA: GGGAGUUCUACAGUCCGACGAUCUCUUUAAAAAAAAUUCCUUUUUUACAAACAAUAAUAGCACAUUUCGAGAAUCAAGAACUACAAUAGAGGGUCCGCUUUGAGUUUUUGUUCACAUCGUCCUGCACUGGGACACGGGGACUGCAACAGAGGAUUGAGCAUCA
# B8: chr16:45382771:45382772:-_ENSMUSG00000022661_ENSMUST00000163230|mus_mus|mus_mus_mus_hu_True|8_88 (ssRNA)
# RNA: GGGAGUUCUACAGUCCGACGAUCCUGGGUCAUGUUAUAAGACAAAUGGAUAGGGAGGGCAUGCUUCUCAAAAAAUGUGAGCUAUUGUCUAAGACUAACAAUAUUUAUCUAGCUAUAAAAAUAAGUUUUAAAUGGACGUUAAGACAACAGAGGAUUGAGCAUCA
# B9: chr7:135612270:135612271:-_ENSG00000105887_ENST00000393085|hu_mus|hu_hu_hu_mus_False|18_58 (ssRNA)
# RNA: GGGAGUUCUACAGUCCGACGAUCGUUUUUUUCUGAGAUGUUAAAUAGUACUUCAGUGGAAAACAAAACUUAACCUUUCGCUAAUGCGUGUUGUACCAAAAGCAGACAUUUUAGCUUGCUUCCUUUAAAAAUAUUAACAUUAAGCAACAGAGGAUUGAGCAUCA
# B10: chr16:75203323:75203324:+_ENSG00000184517_ENST00000393430|hu_mus|motif|central (ssRNA)
# RNA: GGGAGUUCUACAGUCCGACGAUCAAGUGGUUCCCCAAAUCCACCACACCCGUCUCCUUUCUUUCUUACACAGUUUCGGCUGCGGAGUAAGUCUGAAUUGUACUUCAAAGUUUUUUCAUAUAAAUCAUAUUUAUAGGGAACUUGCAACAGAGGAUUGAGCAUCA
# B11: chr2:52995849:52995850:-_ENSMUSG00000061136_ENSMUST00000076313|mus_hu|FALSE|FALSE (ssRNA)
# RNA: GGGAGUUCUACAGUCCGACGAUCACAGAGAACAAAAUCUUAUCACCUGUGCCUUCAGACUGUCAAGUAUCUUUCUAGCAACUAAAUCCCAUUUGAUGGGAUCCUGAAAGGUAGACAAAGGAUCACAGUCACUUAAGUUACAUCCAACAGAGGAUUGAGCAUCA
# B12: chr5:128440902:128440903:+_ENSG00000066583_ENST00000173527|hu_mus|FALSE|FALSE (ssRNA)
# RNA: GGGAGUUCUACAGUCCGACGAUCUUGAACGGUGCUGCCAAGUCCUUUGGGGUAUUGUUCCGUUAUGAUAACUGGAAUCCCUAAGAUCCGAGCUCCUUGCAACAGUCUCUGUCCCACACUAAUGAUGUCCCCAAAGUAUUUGAUCAACAGAGGAUUGAGCAUCA
# B13: 59919957_59925198_2102_CDS_ENSG00000134444_ENST00000256858|human|control|control (ssRNA)
# RNA: GGGAGUUCUACAGUCCGACGAUCGGAGCUACGGAUUUCUUUAGGAAGGUAAGGUGCCAGUGCUCCACAGGAUUCUGCCACAAGCAGUCGUCUUUCUGGGUAUUUGUGAUUAAUCUGUUCCCAACACUGUGGUAAAAGUUCAGCCAACAGAGGAUUGAGCAUCA
# B14: chr16:45382771:45382772:-_ENSMUSG00000022661_ENSMUST00000163230|mus_mus|mus_mus_mus_hu_True|48_108 (ssRNA)
# RNA: GGGAGUUCUACAGUCCGACGAUCCUGAGUGUUAUUGUAAGACAAAUGGACAGGGAGGGCAUGCUUCUCAAAAAAUGUGAGCUAUUGACUAAGACUAACAAUAUUUAUCUAGCUAUAAAAAUAAGUUAAAUGAAUAAGUUAAGACAACAGAGGAUUGAGCAUCA
# B15: chr5:132424181:132424182:+_ENSG00000170606_ENST00000304858|hu_hu|motif|central (ssRNA)
# RNA: GGGAGUUCUACAGUCCGACGAUCGGCACACUGCAAUGCACAGCCUCGAGUGACAGCUUCAUCAGCAUUUAAUGUUGUACGGAGUUCUUUACCGAAAAAUUUGCUGAUCUUCUCUUUUACCGCAGGGAUUCGUGUAGCACCACCCAACAGAGGAUUGAGCAUCA
# B16: chr2:207631934:207631935:+_ENSG00000118246_ENST00000403094|hu_mus|motif|central (ssRNA)
# RNA: GGGAGUUCUACAGUCCGACGAUCCUCUUGUCUUCAGAUAUCCUUUUGGCAAUUAUCCACAUUGCUAAGAAAUAGUUACGGCCAGGAAAUGUAGGUGCUUUUGAAAAUGUGUCCAGCACAUCACUCAGAGAGUUACACUCCUGGCAACAGAGGAUUGAGCAUCA
# B17: chr4:110743517:110743518:+_ENSG00000109534_ENST00000226796|hu_hu|FALSE|FALSE (ssRNA)
# RNA: GGGAGUUCUACAGUCCGACGAUCUUUCUCACCUGGAGGUCGAGGUAAAAACCUCUGCAGUGGCAGCAGCUUAUAUGGGUCUAUAUAAAACUUCUGUAGUUUUUUAAAGGAUGAAGCCUUCAUGUUUUCUGACAACUUAACUGACAACAGAGGAUUGAGCAUCA
# B18: chr5:86670034:86670035:+_ENSG00000145715_ENST00000456692|hu_hu|motif|central (ssRNA)
# RNA: GGGAGUUCUACAGUCCGACGAUCUUCUGACCAUACUGGGUUUUGCCCUUCCCUUGCAUGAGUUUUUGCUACUUGGACACGGUUCAGGUAGAUGUUACAAUAUGGAUUAGUAAAAUGUUUUACUGGGAGUUUAUGGGCUUCUUCCAACAGAGGAUUGAGCAUCA
# B19: chr14:78183846:78183847:+_ENSG00000119705_ENST00000557342|hu_hu|hu_hu_hu_mus_False|18_58 (ssRNA)
# RNA: GGGAGUUCUACAGUCCGACGAUCUCUCAGAAAUCUUUCUUCAUCAGAUGUUUGAGCUCCGUGCAAAGCCUUUGCUCUUCUAGUGUGAACGUGGAUCUAUGGGAGGGAAAGCACUGUAUUUUCCUGUAAUUUUUUUUUUAAAGACAACAGAGGAUUGAGCAUCA
# B20: chr2:64119684:64119685:-_ENSG00000143952_ENST00000409558|hu_hu|motif|central (ssRNA)
# RNA: GGGAGUUCUACAGUCCGACGAUCACAUCGAAAGUAACUUAAAAACAAGGAUCCAAGGGGGCCAUACUUCAUAUGUUAUCGGAAUGUUAAUAUGAGAACUCAAAAGUAGGCAGAUUAUAUGAAUACAUAUUCUUACCUCUGCUACAACAGAGGAUUGAGCAUCA
# B21: chr6:41067180:41067181:+_ENSG00000001167_ENST00000341376|hu_hu|motif|central (ssRNA)
# RNA: GGGAGUUCUACAGUCCGACGAUCACAAAAUUCAAAGUCAUCUCCCCCCAAAUAAAAAAUUCAGCAACAAGGCUGGCAUUACGGUGUACAAACUUACAGACACAAAUAAAUAGCAUCUUCUAACUGUUGGCAGCUUAAGCACUCCAACAGAGGAUUGAGCAUCA
# B22: chr13:85359083:85359084:-_ENSMUSG00000021549_ENSMUST00000109552|mus_hu|FALSE|FALSE (ssRNA)
# RNA: GGGAGUUCUACAGUCCGACGAUCGGGCUCCUUAGCUCCAAAUUCCACAAGAUUUGCUAAGUUCUGCACAGAUUUAGCCACUAAUAUCAGUGUUCUUGCAGCAAUAGGAGAUGGAGAAUCUGAGAUGAUAUUGAACAUCCGUGGCAACAGAGGAUUGAGCAUCA
# Target: T1, UNK ZnF1-3 (human, UniProt Q9C0B0 31-174)
# T1 sequence: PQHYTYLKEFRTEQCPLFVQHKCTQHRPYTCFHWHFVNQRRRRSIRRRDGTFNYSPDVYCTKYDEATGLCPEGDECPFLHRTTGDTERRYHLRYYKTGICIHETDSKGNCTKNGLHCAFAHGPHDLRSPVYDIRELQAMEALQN
# Test: nsRBNS (natural sequence RNA bind-n-seq); RBNS binding buffer (assumed for nsRBNS): 25 mM Tris pH 7.5, 150 mM KCl, 3 mM MgCl2, 0.01% Triton X-100, 500 ug/ml BSA, 20 U/ml SUPERase-In, 4 C; UNK is unkempt and MSI1 is Musashi-1; names of the RNAs are library labels; protein concentration not given here; high values mean tight binding
row,Binder,binding signal
1,B1,0.884 enrichment R
2,B2,0.647 enrichment R
3,B3,0.481 enrichment R
4,B4,0.76 enrichment R
5,B5,1.13 enrichment R
6,B6,1.21 enrichment R
7,B7,1.17 enrichment R
8,B8,3.27 enrichment R
9,B9,0.613 enrichment R
10,B10,0.958 enrichment R
11,B11,1.24 enrichment R
12,B12,0.721 enrichment R
13,B13,1.58 enrichment R
14,B14,1 enrichment R
15,B15,1.44 enrichment R
16,B16,1.02 enrichment R
17,B17,0.858 enrichment R
18,B18,0.485 enrichment R
19,B19,0.867 enrichment R
20,B20,1.25 enrichment R
21,B21,2.3 enrichment R
22,B22,1.63 enrichment R
